One may read the Kd as the concentration at which binding is half-saturated. What is called koff is the rate constant with which the complex falls apart. Lower therefore signals slow dissociation. As a reminder, the kon is the rate constant with which the complex forms. Higher therefore signals fast association.

Assay [1] addresses T1, Human FAM150A (human, UniProt Q6UXT8 28-129).
T1 construct: Expressed in HEK 293 6E cells (or HEK293T supernatant) and secreted
T1 sequence: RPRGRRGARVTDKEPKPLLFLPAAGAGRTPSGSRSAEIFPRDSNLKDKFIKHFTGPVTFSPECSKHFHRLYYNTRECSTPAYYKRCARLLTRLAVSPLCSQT
Description: SPR (Biacore T100), ECD-Fc captured on Protein A CM4 chip, FAM150A as analyte; 1:1 binding model. How it is done: The kₐ, kd, and KD for binding of human FAM150A to human LTK ECD-Fc (SEQ ID NO: 23) and mouse LTK ECD-Fc (SEQ ID NO: 25) was determined as follows. Binding kinetics of FAM150A to human and mouse LTK ECD-Fc fusion proteins was determined using Biacore T100 SPR (GE Healthcare Life Sciences, Piscataway, N.J.). LTK ECD-Fc fusions were captured on a CM4 sensor chip immobilized with Protein A (Thermo Scientific, Rockford, Ill.). HBS-P (GE Healthcare Life Sciences, Piscataway, N.J.) was used as the running and dilution buffer. Capture levels of the ECD-Fc fusions were adjusted to approximately 300-500RU so that binding values would be greater than the levels of non-specific binding to the reference flow cell. FAM150A was injected at […] (100 nM, 33.3 nM, 11.1 nM, 3.7 nM, 1.2 nM, 0.41 nM, 0.13 nM, 0.046 nM and 0 nM) for 120 seconds. The association constant, dissociation constant, and affinity of FAM150A for LTK Fc-ECD fusions was calculated using the Biacore T100 Evaluation software package using the 1:1 binding model.
On the technique in general: In SPR one partner is held on a chip, and binding of the other changes the refractive index at the surface.

Assay [2] addresses T1, Human FAM150A. Put plainly: SPR (Biacore T100), ECD-Fc captured on anti-human IgG CM4 chip, FAM150A as analyte; 1:1 or steady state affinity model. How it is done:
Binding kinetics of FAM150A and FAM150B to LTK ECD-Fc and ALK ECD Fc fusion proteins was determined using Biacore T100 surface plasmon resonance (SPR) (GE Healthcare Life Sciences, Piscataway, N.J.). LTK ECD-Fc and ALK ECD-Fc (and a control unrelated protein-Fc fusion) were captured on a CM4 sensor chip immobilized with anti-human IgG antibody using the Human Antibody Capture Kit (GE Healthcare Life Sciences, Piscataway, N.J.). 10 mM HEPES buffered saline, pH 7.4, 150 mM NaCl, 0.005% Tween-20 (HBS-P, GE Healthcare Life Sciences, Piscataway, N.J.) was used as the running and dilution buffer. Capture levels of the ECD-Fc fusions were adjusted to approximately 300-500RU so that binding values would be greater than the levels of non-specific binding to the reference flow cell. FAM150A and FAM150B were injected at eight concentrations (300 nM, 100 nM, 33.3 nM, 11.1 nM, 3.7 nM, 1. 2 nM, 0.41 nM, 0.13 nM and 0 nM) for 90 seconds or 180 seconds. […]
(§1) The association constant, dissociation constant, and affinity for FAM150A for LTK ECD-Fc and ALK ECD-Fc fusions was calculated using the Biacore T100 Evaluation software package using standard double referencing technique and the 1:1 binding model or steady state affinity model. The affinities of FAM150B for LTK ECD-Fc and ALK ECD-Fc could not be calculated in this assay due to high non-specific binding.

Assay [3] deals with T1, Human FAM150A. Put plainly: SPR (Biacore T100), ECD-Fc captured on anti-human IgG CM4 chip, FAM150A as analyte; 1:1 binding model. How it is done:
Binding kinetics of FAM150A and FAM150B to LTK ECD-Fc and ALK ECD Fc fusion proteins was determined using Biacore T100 surface plasmon resonance (SPR) (GE Healthcare Life Sciences, Piscataway, N.J.). LTK ECD-Fc and ALK ECD-Fc (and a control unrelated protein-Fc fusion) were captured on a CM4 sensor chip immobilized with anti-human IgG antibody using the Human Antibody Capture Kit (GE Healthcare Life Sciences, Piscataway, N.J.). 10 mM HEPES buffered saline, pH 7.4, 150 mM NaCl, 0.005% Tween-20 (HBS-P, GE Healthcare Life Sciences, Piscataway, N.J.) was used as the running and dilution buffer. Capture levels of the ECD-Fc fusions were adjusted to approximately 300-500RU so that binding values would be greater than the levels of non-specific binding to the reference flow cell. FAM150A and FAM150B were injected at eight concentrations (300 nM, 100 nM, 33.3 nM, 11.1 nM, 3.7 nM, 1. 2 nM, 0.41 nM, 0.13 nM and 0 nM) for 90 seconds or 180 seconds. The short and long association method was used to increase the accuracy of the binding kinetics.
as §1

B1: Mouse LTK ECD-Fc (Fc fusion)
chain: ILCSNSEFQTPFLTPSLLPVLVLNSQEQKVTPTPSKLEPASLPNPLGTRGPWVFNTCGASGRSGPTQTQCDGAYTGSSVMVTVGAAGPLKGVQLWRVPDTGQYLISAYGAAGGKGAQNHLSRAHGIFLSAVFFLRRGEPVYILVGQQGQDACPGGSPESQLVCLGESGEHATTYGTERIPGWRRWAGGGGGGGGATSIFRLRAGEPEPLLVAAGGGGRSYRRRPDRGRTQAVPERLETRAAAPGSGGRGGAAGGGSGWTSRAHSPQAGRSPREGAEGGEGCAEAWAALRWAAAGGFGGGGGACAAGGGGGGYRGGDTSESDLLWADGEDGTSFVHPSGELYLQPLAVTEGHGEVEIRKHPNCSHCPFKDCQWQAELWTAECTCPEGTELAVDNVTCMDLPTTASPGS[no letters for human IgG1 Fc with changes]
notes: also called mouse LTK ECD-Fc (human Fc)
Regarding B1, in assay [1], binding was put at a Kd of 0.95 nM, the off-rate (koff) came to 0.00799 s⁻¹ and the kon was 8.45e+06 M⁻¹ s⁻¹.

B2: Human ALK ECD-Fc (Fc fusion)
chain: VGSGMGTGQRAGSPAAGSPLQPREPLSYSRLQRKSLAVDFVVPSLFRVYARDLLLPPSSSELKAGRPEARGSLALDCAPLLRLLGPAPGVSWTAGSPAPAEARTLSRVLKGGSVRKLRRAKQLVLELGEEAILEGCVGPPGEAAVGLLQFNLSELFSWWIRQGEGRLRIRLMPEKKASEVGREGRLSAAIRASQPRLLFQIFGTGHSSLESPTNMPSPSPDYFTWNLTWIMKDSFPFLSHRSRYGLECSFDFPCELEYSPPLHDLRNQSWSWRRIPSEEASQMDLLDGPGAERSKEMPRGSFLLLNTSADSKHTILSPWMRSSSEHCTLAVSVHRHLQPSGRYIAQLLPHNEAAREILLMPTPGKHGWTVLQGRIGRPDNPFRVALEYISSGNRSLSAVDFFALKNCSEGTSPGSKMALQSSFTCWNGTVLQLGQACDFHQDCAQGEDESQMCRKLPVGFYCNFEDGFCGWTQGTLSPHTPQWQVRTLKDARFQDHQDHALLLSTTDVPASESATVTSATFPAPIKSSPCELRMSWLIRGVLRGNVSLVLVENKTGKEQGRMVWHVAAYEGLSLWQWMVLPLLDVSDRFWLQMVAWWGQGSRAIVAFDNISISLDCYLTISGEDKILQNTAPKSRNLFERNPNKELKPGENSPRQTPIFDPTVHWLFTTCGASGPHGPTQAQCNNAYQNSNLSVEVGSEGPLKGIQIWKVPATDTYSISGYGAAGGKGGKNTMMRSHGVSVLGIFNLEKDDMLYILVGQQGEDACPSTNQLIQKVCIGENNVIEEEIRVNRSVHEWAGGGGGGGGATYVFKMKDGVPVPLIIAAGGGGRAYGAKTDTFHPERLENNSSVLGLNGNSGAAGGGGGWNDNTSLLWAGKSLQEGATGGHSCPQAMKKWGWETRGGFGGGGGGCSSGGGGGGYIGGNAASNNDPEMDGEDGVSFISPLGILYTPALKVMEGHGEVNIKHYLNCSHCEVDECHMDPESHKVICFCDHGTVLAEDGVSCIVSPTPEPHLPLSLILSGS[no letters for human IgG1 Fc with changes]
notes: Expressed in CHO-3E7 cells; also called human ALK-Fc
In the case of B2, the Kd in assay [2] was 280 nM.

B3: Human LTK extracellular domain (ECD)-Fc (Fc fusion)
chain: ILCSSPGSQETFLRSSPLPLASPSPRDPKVSAPPSILEPASPLNSPGTEGSWLFSTCGASGRHGPTQTQCDGAYAGTSVVVTVGAAGQLRGVQLWRVPGPGQYLISAYGAAGGKGAKNHLSRAHGVFVSAIFSLGLGESLYILVGQQGEDACPGGSPESQLVCLGESRAVEEHAAMDGSEGVPGSRRWAGGGGGGGGATYVFRVRAGELEPLLVAAGGGGRAYLRPRDRGRTQASPEKLENRSEAPGSGGRGGAAGGGGGWTSRAPSPQAGRSLQEGAEGGQGCSEAWATLGWAAAGGFGGGGGACTAGGGGGGYRGGDASETDNLWADGEDGVSFIHPSSELFLQPLAVTENHGEVEIRRHLNCSHCPLRDCQWQAELQLAECLCPEGMELAVDNVTCMDLHKPPGPLGS[no letters for human IgG1 Fc with changes]
notes: Expressed in CHO-3E7 cells; also called LTK ECD-Fc; human LTK-Fc
For the molecule B3, in assay [1], the Kd was < 0.028 nM, the off-rate constant (koff) was 0.000278 s⁻¹ and the kon was > 1e+07 M⁻¹ s⁻¹. In assay [3], the Kd is < 0.04 nM, the dissociation rate constant (koff) was determined as 0.000398 s⁻¹ and the kon is > 1e+07 M⁻¹ s⁻¹.

The values above are taken from patent publication US20160017024A1 (Five Prime, published 2016).
